± gives the uncertainty stated by the source. The sequences are guide strands of siRNAs; only the seed at positions 2 to 7 varies.

For 30 sequences, cell viability results are on record in the supplement of paper PMC6206098.

One data set deals with 3LL. Description: cell viability relative to siNT1 control; higher = less toxic. Particulars: concentration: 10 nM; 96 h; Mus musculus.
Another data set concerns H460. Kind of data set: cell viability relative to lipid-only control; HeyA8 human ovarian and H460 human lung cancer; M565 mouse liver and 3LL mouse lung cancer; siNT1 is a non-toxic control siRNA; higher = less toxic. Particulars: concentration: 10 nM; 96 h; Homo sapiens.
A further data set concerns HeyA8. The data set is described as above. Particulars: concentration: 10 nM; 96 h; Homo sapiens.
The subject of the next data set is M565. The data set is described as above. The following applies: concentration: 10 nM; 96 h; Mus musculus.
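Throughout, for cell viability relative to lipid-only control: reverse lipid transfection in 384-well plates, in triplicate, of duplexes on a non-toxic 19mer backbone with passenger strand 2′-O-methylated at positions 1 and 2, luminescence viability read-out.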
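Throughout, for cell viability relative to siNT1 control: Luminescence-based viability of cells reverse transfected in 384-well plates with lipid-complexed siRNAs built on a non-toxic 19mer backbone whose passenger strand carries 2′-O-methyl groups at positions 1 and 2, triplicates.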

As usually defined, the cell viability is a read-out of living cells in per cent, often relative to untreated cells. In the case of UAUUGUGACAUGUAAACCAAA, the cell viability with 3LL is 105 ± 26%; in the data set on H460, 63.1 ± 3.7%; in the data set with HeyA8 it was 90.3 ± 9.2%; with M565, 96.1 ± 9.2%.

Consider UUACAACACAUGUAAACCAAA, for which the cell viability with 3LL was determined as 96.4 ± 18%; with H460, 68.8 ± 4.7%; in the data set with HeyA8 it was 89.8 ± 1.6%; in the data set on M565, 105 ± 32%.

UAAUGCCACAUGUAAACCAAA: the cell viability with 3LL stood at 7.2 ± 1.8%; with H460, 29.9 ± 2.4%; with HeyA8 it was 39.8 ± 6.4%; in the data set on M565, 5.78 ± 0.72%.

As to UUCAGCCACAUGUAAACCAAA, the cell viability in the data set with 3LL was determined as 10.9 ± 6.1%; in the data set on H460 it was 18.7 ± 2.7%; in the data set with HeyA8, 26.4 ± 6.8%; in the data set on M565, 51.2 ± 14%.

Take UCUUCGGACAUGUAAACCAAA: the cell viability with 3LL came to 91.4 ± 22%; with H460 it was 78.4 ± 11%; in the data set with HeyA8 it was 70.9 ± 5.6%; with M565, 77 ± 8.5%.

As for UCUCUUUACAUGUAAACCAAA, the cell viability with 3LL is 96.5 ± 11%; with H460, 48 ± 5.3%; in the data set on HeyA8, 78.5 ± 2.2%; in the data set with M565, 81.1 ± 6.2%.

As to UUAUGUCACAUGUAAACCAAA, the cell viability stood at 8.87 ± 1.3% with 3LL, 32.1 ± 4% in the data set with H460, 47.9 ± 6.4% in the data set on HeyA8 and 55 ± 9.2% in the data set on M565.

For the sequence UGGUUCUACAUGUAAACCAAA, the cell viability in the data set on 3LL worked out at 53.6 ± 4.8%; in the data set on H460, 49.5 ± 10%; in the data set with HeyA8, 37.1 ± 3.5%; with M565, 24.6 ± 2.1%.

With UCGUCCUACAUGUAAACCAAA, the cell viability in the data set with 3LL was 30.5 ± 12%; in the data set on H460, 50.2 ± 0.58%; in the data set on HeyA8, 30.3 ± 1.8%; with M565 it was 31 ± 4.5%.

For UCUGAGCACAUGUAAACCAAA, the cell viability was 72.9 ± 4.7% in the data set on 3LL, 47.3 ± 1.4% in the data set with H460, 70.2 ± 1.9% in the data set with HeyA8 and 29.7 ± 11% in the data set with M565.

Turning to UAACCCGACAUGUAAACCAAA, the cell viability in the data set with 3LL came to 71 ± 2.1%; with H460 it was 92.5 ± 15%; in the data set on HeyA8, 75.7 ± 5.8%; with M565 it was 61.1 ± 4%.

In the case of UGGGGGAACAUGUAAACCAAA, the cell viability in the data set with 3LL came to 41.9 ± 4.8%; in the data set on H460, 19.3 ± 3.8%; in the data set with HeyA8 it was 2.69 ± 0.41%; in the data set with M565 it was 12.3 ± 4.9%.

In the case of UGAUACAACAUGUAAACCAAA, the cell viability was found to be 70.5 ± 6.5% with 3LL, 46.1 ± 5% in the data set with H460, 66.5 ± 4.5% with HeyA8 and 40.5 ± 5.1% with M565.

With UGCGCUAACAUGUAAACCAAA, the cell viability with 3LL is 96 ± 15%; in the data set with H460, 97.5 ± 12%; in the data set on HeyA8, 87.2 ± 5.2%; in the data set on M565, 72.3 ± 4%.

With UUCGGAAACAUGUAAACCAAA, the cell viability in the data set on 3LL was determined as 105 ± 14%; in the data set on H460 it was 92.6 ± 13%; with HeyA8 it was 77.3 ± 3.7%; with M565, 77.4 ± 7.4%.

On to UGGCUGUACAUGUAAACCAAA, for which the cell viability turned out to be 21 ± 3.5% with 3LL, 41.7 ± 2.9% in the data set with H460, 14.6 ± 0.69% in the data set on HeyA8 and 14.2 ± 2.9% in the data set with M565.

In the case of UCCCUGAACAUGUAAACCAAA, the cell viability is 105 ± 18% with 3LL, 50.65 ± 0.32% with H460, 77.5 ± 5.7% with HeyA8 and 106 ± 23% in the data set on M565.

For the sequence UUAGUCAACAUGUAAACCAAA, the cell viability with 3LL turned out to be 89.2 ± 1.6%; in the data set on H460 it was 75.4 ± 9.2%; in the data set on HeyA8, 91.6 ± 5.3%; with M565, 77.9 ± 6.3%.

Take UCCAACCACAUGUAAACCAAA: the cell viability in the data set on 3LL stood at 33.4 ± 7.3%; in the data set with H460 it was 34.1 ± 1.6%; with HeyA8, 31.7 ± 3.7%; with M565, 4.77 ± 0.94%.

For UUACAGGACAUGUAAACCAAA, the cell viability with 3LL amounted to 87.8 ± 2.7%; in the data set on H460, 57.1 ± 6.3%; with HeyA8 it was 82.2 ± 5.3%; in the data set on M565, 72.2 ± 1.9%.

As for UAAAUGGACAUGUAAACCAAA, the cell viability in the data set with 3LL was 85.6 ± 6.2%; in the data set on H460, 66.4 ± 4.1%; in the data set with HeyA8 it was 88.9 ± 4.7%; with M565 it was 54.7 ± 6.5%.

In the case of UCAUUGAACAUGUAAACCAAA, the cell viability amounted to 83.3 ± 12% with 3LL, 51.1 ± 5% in the data set on H460, 75.4 ± 2.3% in the data set on HeyA8 and 58 ± 14% in the data set with M565.

As to UGAUUCGACAUGUAAACCAAA, the cell viability in the data set on 3LL turned out to be 46 ± 10%; in the data set on H460 it was 37 ± 4.4%; in the data set with HeyA8, 41.6 ± 2.8%; in the data set with M565, 10.3 ± 1.9%.

Consider UCGUCCCACAUGUAAACCAAA, for which the cell viability was determined as 23.4 ± 7% in the data set with 3LL, 39 ± 0.85% in the data set on H460, 28 ± 2.5% in the data set on HeyA8 and 4.29 ± 0.29% in the data set with M565.

As for UCGGCUCACAUGUAAACCAAA, the cell viability is 6.79 ± 0.78% in the data set on 3LL, 20.3 ± 1.7% with H460, 8.9 ± 1.1% in the data set on HeyA8 and 68.2 ± 7.3% in the data set with M565.

Turning to UCAAAAGACAUGUAAACCAAA, the cell viability came to 86 ± 18% in the data set on 3LL, 64.8 ± 9.3% in the data set on H460, 83.4 ± 3.2% in the data set on HeyA8 and 65.2 ± 9.1% in the data set on M565.

Take UGUCGGCACAUGUAAACCAAA: the cell viability was 49.9 ± 5.9% in the data set with 3LL, 60 ± 4.9% in the data set on H460, 32.8 ± 2% with HeyA8 and 19.3 ± 2.7% in the data set with M565.

For the sequence UGGUAAGACAUGUAAACCAAA, the cell viability stood at 86.4 ± 8.4% in the data set with 3LL, 73.6 ± 10% with H460, 80.2 ± 8.4% in the data set on HeyA8 and 72.5 ± 16% in the data set with M565.

On to UCGACAAACAUGUAAACCAAA, for which the cell viability in the data set on 3LL came to 89.5 ± 24%; with H460 it was 68.9 ± 14%; in the data set on HeyA8, 90.5 ± 7.2%; in the data set with M565, 69.9 ± 12%.

On to UCUAAAGACAUGUAAACCAAA, for which the cell viability came out at 92.9 ± 15% in the data set with 3LL, 79.5 ± 7.4% in the data set on H460, 82.6 ± 5.8% with HeyA8 and 66.6 ± 14% in the data set on M565.
